# Measured values: paper PMC4242493
# Some of the results follow. The list includes weakly bound sequences.
# Target: MaxL homodimer (UniProt P61244)
# Assay: universal protein-binding microarray (PBM)
# Conditions: PBS-based mixture, 10 nM His-tagged protein dimer, 2% milk, 200 ng/uL BSA, 50 ng/uL salmon testes DNA, 0.02% TX-100; detection with Alexa 488 anti-His …; high values mean tight binding; most listed sequences are background and not binding sites; double strand, one strand shown
# Chain of UniProt P61244 (P61244 whole entry): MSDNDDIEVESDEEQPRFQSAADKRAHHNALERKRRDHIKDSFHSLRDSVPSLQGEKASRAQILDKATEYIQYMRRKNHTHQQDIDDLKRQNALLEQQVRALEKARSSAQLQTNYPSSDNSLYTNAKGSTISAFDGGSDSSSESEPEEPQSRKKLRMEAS
row,Sequence,binding signal (normalized occupancy)
1,CGGTTCGC,0.0651
2,CATTAGCA,0.0852
3,CGACTCGC,0.0679
4,CCCAGGGG,0.0708
5,CCGTTGGA,0.071
6,GATGCTCA,0.0734
7,ATAGAGAT,0.0751
8,CCGGCGAC,0.0657
9,CGGGGGTC,0.0772
10,AGCGTAAA,0.0682
11,GGTTAACA,0.0765
12,AAGGCCTT,0.071
13,ACGAAGCT,0.0665
14,CGCTGTCC,0.073
15,CCTGAGTA,0.0728
16,ACTGAAAA,0.0764
17,CATTTTAA,0.0765
18,CCTGGTCG,0.0732
19,CACTCACA,0.0843
20,AAACTTAG,0.0756
21,ACCTAGTG,0.0786
22,AGGGTCGG,0.073
23,ATATAGTG,0.0807
24,AGACTAGC,0.0676
25,CCACTCCC,0.0792

row,Sequence,binding signal (normalized occupancy)
1,ATTGTAGC,0.0787
2,CCTATCGC,0.0756
3,CACGAAGG,0.0704
4,CACAATCG,0.0756
5,AAGTCTCG,0.0717
6,CAAATGGC,0.0778
7,ACTTCTAC,0.0757
8,AAGATGAT,0.0791
9,TAGCGGCA,0.0701
10,AACGGCGC,0.0729
11,ACGCACGT,0.0986
12,ACAATGTG,0.0995
13,GTTCCCTA,0.0721
14,GATTCGAC,0.0715
15,CGGTATCA,0.0795
16,CCGCCGCC,0.0692
17,AGTGGTGC,0.077
18,AGTTTTCG,0.0705
19,CAATTGCA,0.0772
20,GGAGGGCC,0.0707
21,CATGTGGC,0.165
22,TCTAGAAA,0.0769
23,ATTCGAGC,0.0703
24,CCGCAGCA,0.07
25,GGTGCTAC,0.0789

row,Sequence,binding signal (normalized occupancy)
1,ATCGAAAC,0.073
2,GATCGGAA,0.0717
3,AGACATAC,0.0781
4,CCCCAAAG,0.0697
5,ACCCCTCG,0.0765
6,GGGGCCGA,0.0742
7,CAGCGGCG,0.0694
8,CTCGTTAA,0.0775
9,TCTCTTAA,0.0715
10,CACACGCA,0.0865
11,CATAGGAA,0.0749
12,AGTTATGC,0.0769
13,ACGGCTTA,0.0706
14,CTGAGTCA,0.076
15,AGCTTCAT,0.0774
16,CCGCCGGA,0.0684
17,GGAGTGCA,0.0787
18,CCTCGAGG,0.0864
19,AGAGCTGG,0.0694
20,CATCTGGG,0.0809
21,AATATGCC,0.0803
22,CGATCAAG,0.0698
23,GCAGATGC,0.078
24,GCCCAGTA,0.069
25,CCGTAATA,0.0774

row,Sequence,binding signal (normalized occupancy)
1,CATAGCGG,0.0744
2,CTTCGCCC,0.0688
3,GAGGGGCC,0.0703
4,AAAGCGTC,0.0666
5,AGGCCAGG,0.0673
6,ACCGCATG,0.146
7,GTCCCCAA,0.0697
8,AGGTTGAA,0.0675
9,GGTAGTTA,0.0798
10,GCTGGACA,0.073
11,CTATTCGA,0.0711
12,CCTGGCAC,0.072
13,ACTGTTGG,0.0703
14,GCGCGCCA,0.0743
15,CGCGGGAG,0.0678
16,ATAATGGC,0.0796
17,GAGTGGGC,0.0768
18,ACAACCCC,0.0879
19,CAATCAGG,0.0728
20,GGGATGAA,0.0785
21,CCGCCGAC,0.0726
22,ATTAATCA,0.0813
23,AGAGGAAG,0.0689
24,CGAAGCCC,0.0666
25,ACCCAGTG,0.0756

row,Sequence,binding signal (normalized occupancy)
1,CTCTTTCC,0.0687
2,ATACCTAC,0.0834
3,GAGTTCAC,0.0734
4,CAAACTGC,0.0706
5,CCTCTTTA,0.0728
6,CTGCAGCC,0.0738
7,GATAATAC,0.0839
8,GCGTCCCC,0.0712
9,TGGTTCAA,0.0757
10,GCAAGAAA,0.0745
11,GATACACC,0.0796
12,AGAGATGC,0.0756
13,CCGCTGTC,0.0692
14,GTCCATCA,0.0781
15,CACTCCTC,0.0733
16,AGGATAGA,0.0803
17,ACCGGGGG,0.0687
18,ATCTAAAC,0.0791
19,ATGCATAG,0.0814
20,AGGTCTCG,0.0701
21,CGAGCATC,0.076
22,CTGTGTGA,0.0738
23,ATCATACA,0.0836
24,ATGTCATC,0.0845
25,AGCTTAAC,0.0697

row,Sequence,binding signal (normalized occupancy)
1,ACGCGACG,0.0869
2,CCAATTGC,0.071
3,ATAACCAG,0.0789
4,ACTGAGGC,0.0658
5,AGCTCTTA,0.0717
6,GGTATCAA,0.0827
7,AGAAGATC,0.0742
8,CAAAGTGC,0.0698
9,ACCATGTG,0.225
10,ATTGAATG,0.0791
11,TCCGACGA,0.0734
12,CGGGATAC,0.0813
13,CTGGCGCC,0.0656
14,AAATCCCC,0.0799
15,GCGGAGTA,0.0711
16,CCGTTGGC,0.0715
17,AGAGACTG,0.0692
18,ACCCGGAA,0.0708
19,TGATGCCA,0.081
20,ACTGTAAT,0.0778
21,GGAATCAC,0.0779
22,CTAGCAAG,0.0733
23,GTGTGACA,0.0905
24,CCTGACGC,0.0718
25,AATTTGTG,0.0785

row,Sequence,binding signal (normalized occupancy)
1,GCATGGAC,0.0979
2,AAATCTAC,0.0756
3,ATAATGAG,0.0812
4,CGAAACGA,0.0702
5,TGTAAACA,0.0778
6,AAAAGGTG,0.0751
7,AGCGAAAG,0.0697
8,ATACGCAT,0.0968
9,ACTTGACG,0.0741
10,CGGGCTCC,0.0651
11,CCTTGCCG,0.0696
12,GCGTGTCC,0.0957
13,GGGAATAC,0.083
14,GCATCGGA,0.0717
15,TCCCGGAA,0.0674
16,AAGCATAA,0.0767
17,GCTTGACC,0.0701
18,CCAATGCC,0.0744
19,AACTGGGG,0.0722
20,GCAGCAGA,0.0667
21,ATGTGTTA,0.0885
22,CCTTAGAG,0.0694
